Assay [1] has as its system HSkMC (human skeletal muscle cells). Kind of assay: cytotoxicity call (relative viability < 0.9). As to conditions: 10 µM.
Assay [2] relates to HepG2. Nature of the assay: cytotoxicity call (relative viability < 0.9). The conditions noted are these: 10 µM.
The test system of assay [3] is S. aureus RN4220. Nature of the assay: growth inhibition call (relative growth <= 0.2). The conditions noted are these: 50 µM.

Data on 25 compounds can be found in the antibiotic and cytotoxicity screens of Wong et al. (2023).

This is one part of the list.

As to `COc1ccccc1S(=O)(=O)N[C@@H]1C=C[C@H](CC(=O)N2CCN(C)CC2)O[C@@H]1CO`, the cytotoxicity call in assay [1] and in assay [2] was “inactive” throughout. In addition, the growth inhibition call in assay [3] was “inactive”.
In the case of `CC(=O)O[C@H]1CC(C)(C)C[C@H]2[C@]13CO[C@@]21CC[C@H]2[C@@]4(C)CC[C@H](O[C@@H]5OC[C@H](O[C@@H]6O[C@H](CO)[C@@H](O)[C@H](O)[C@H]6O[C@@H]6OC[C@@H](O[C@@H]7O[C@H](CO)[C@@H](O)[C@H](O)[C@H]7O)[C@H](O)[C@H]6O)[C@H](O)[C@H]5O[C@@H]5O[C@H](CO)[C@@H](O)[C@H](O)[C@H]5O)[C@@](C)(CO)[C@@H]4CC[C@@]2(C)[C@]1(C)C[C@H]3O`, the cytotoxicity call in assay [1] and in assay [2] was “active” in each case. Besides, the growth inhibition call in assay [3] was “inactive”.
For `C[C@@H]1CCCCO[C@H](CN(C)S(=O)(=O)c2ccccc2)[C@@H](C)CN([C@H](C)CO)C(=O)c2cc(NC(=O)NC3CCCCC3)ccc2O1`, the cytotoxicity call in assay [1] and in assay [2] was “inactive” each time. Moreover, the growth inhibition call in assay [3] was “inactive”.
For `C[C@@H]1CCCCO[C@H](CN(C)C(=O)C2CCCCC2)[C@@H](C)CN([C@H](C)CO)C(=O)c2cc(NC(=O)Nc3ccc4c(c3)OCO4)ccc2O1`, the cytotoxicity call in assay [1] and in assay [2] was “inactive” in each case. Further, in assay [3], the growth inhibition call was “inactive”.
As for `C[C@H](CO)N1C[C@H](C)[C@@H](CN(C)C(=O)Nc2ccc(F)cc2)OCCCC[C@H](C)Oc2ccc(NC(=O)CCCN(C)C)cc2C1=O`, the cytotoxicity call in assay [1] and in assay [2] was “inactive” each time. Further, in assay [3], the growth inhibition call is “inactive”.
On to `CCNC(=O)C[C@@H]1CC[C@@H](NC(=O)C2CCOCC2)[C@@H](CO)O1`, for which the cytotoxicity call in assay [1] and in assay [2] was “inactive” throughout. Further, in assay [3], the growth inhibition call is “inactive”.
For `O=c1cccc2[nH][nH]cc1-2`, the cytotoxicity call in assay [1] and in assay [2] was “inactive” each time. In addition, the growth inhibition call in assay [3] was “inactive”.
Take `Cc1ccc(S(=O)(=O)Nc2ccc3c(c2)CC(=O)N([C@@H](C)CO)C[C@H](C)[C@@H](CN(C)Cc2ccc(Oc4ccccc4)cc2)O3)cc1`: the cytotoxicity call in assay [1] and in assay [2] was “active” in each case. In assay [3], the growth inhibition call is “inactive”.
Regarding `C[C@@H]1CCCCO[C@H](CN(C)S(=O)(=O)c2ccc(Cl)cc2)[C@@H](C)CN([C@H](C)CO)C(=O)c2cc(NS(=O)(=O)c3ccccc3)ccc2O1`, the cytotoxicity call in assay [1] and in assay [2] was “inactive” each time. For the same compound, the growth inhibition call in assay [3] is “inactive”.
Consider `CC(C)NC(=O)Nc1ccc2c(c1)C(=O)N([C@H](C)CO)C[C@H](C)[C@@H](CN(C)S(=O)(=O)c1ccc(Cl)cc1)O2`, for which the cytotoxicity call in assay [1] and in assay [2] was “inactive” throughout. Moreover, the growth inhibition call in assay [3] was “inactive”.
Consider `COc1ccc(CN(C)C[C@@H]2Oc3c(NS(=O)(=O)c4c(C)noc4C)cccc3C(=O)N([C@@H](C)CO)C[C@@H]2C)cc1`, for which the cytotoxicity call in assay [1] and in assay [2] was “inactive” in each case. The growth inhibition call in assay [3] is “inactive”.
As to `COCC#Cc1cnc2c(c1)C(=O)N([C@H](C)CO)C[C@@H](C)[C@@H](CN(C)S(=O)(=O)c1cn(C)cn1)O2`, the cytotoxicity call in assay [1] and in assay [2] was “inactive” in each case. In addition, in assay [3], the growth inhibition call is “inactive”.
`C[C@H]1CCCCO[C@H](CN(C)Cc2ccccc2)[C@@H](C)CN([C@@H](C)CO)C(=O)c2cc(NC(=O)Cc3ccccc3)ccc2O1`: the cytotoxicity call in assay [1] and in assay [2] was “inactive” in each case. Also, the growth inhibition call in assay [3] was “inactive”.
With `CC(C)C#Cc1ccc2c(c1)O[C@H](CN(C)C(=O)Cc1ccccn1)[C@@H](C)CN([C@H](C)CO)S2(=O)=O`, the cytotoxicity call in assay [1] and in assay [2] was “inactive” throughout. Further, the growth inhibition call in assay [3] is “inactive”.
Take `Cc1noc(C)c1S(=O)(=O)N(C)C[C@@H]1OCCCC[C@@H](C)Oc2ccc(NC(=O)Nc3ccc(F)cc3)cc2C(=O)N([C@H](C)CO)C[C@H]1C`: the cytotoxicity call in assay [1] and in assay [2] was “inactive” in each case. For the same compound, the growth inhibition call in assay [3] was “inactive”.
Regarding `C[C@@H]1CN([C@H](C)CO)C(=O)c2cccc(NC(=O)Nc3ccc(C(F)(F)F)cc3)c2O[C@@H]1CN(C)C(=O)NC1CCCCC1`, the cytotoxicity call in assay [1] and in assay [2] was “active” each time. Also, the growth inhibition call in assay [3] is “inactive”.
As for `CCOC(=O)OC(C)OC(=O)C1N2C(=O)C(NC(=O)C(N)c3ccccc3)C2SC1(C)C.Cl` (stereo not given), the cytotoxicity call in assay [1] and in assay [2] was “inactive” in each case. In assay [3], the growth inhibition call is “active”.
Consider `C[C@H](CO)N1C[C@H](C)[C@H](CN(C)S(=O)(=O)c2cn(C)cn2)Oc2ncc(C3=CCCC3)cc2C1=O`, for which the cytotoxicity call in assay [1] and in assay [2] was “inactive” throughout. Besides, the growth inhibition call in assay [3] was “inactive”.
On to `C[C@H](CO)N1C[C@H](C)[C@H](CN(C)Cc2ccc(Cl)c(Cl)c2)Oc2c(NC(=O)Nc3ccc(C(F)(F)F)cc3)cccc2C1=O`, for which the cytotoxicity call in assay [1] and in assay [2] was “inactive” in each case. Besides, in assay [3], the growth inhibition call is “inactive”.
Consider `C[C@H](CO)N1C[C@H](C)[C@H](CN(C)Cc2ccccc2C(F)(F)F)OCc2ccccc2-c2c(n(C)c3ccccc23)C1=O`, for which the cytotoxicity call in assay [1] is “active”. The cytotoxicity call in assay [2] was “inactive”. For the same compound, in assay [3], the growth inhibition call was “inactive”.
Consider `C[C@H](CO)N1C[C@H](C)[C@H](CN(C)S(=O)(=O)c2cn(C)cn2)OCCCC[C@H](C)Oc2ccc(NC(=O)CCCN(C)C)cc2C1=O`, for which the cytotoxicity call in assay [1] and in assay [2] was “inactive” in each case. Moreover, the growth inhibition call in assay [3] is “inactive”.
Turning to `COc1ccc(S(=O)(=O)N(C)C[C@@H]2OCCCC[C@@H](C)Oc3ccc(NC(=O)C4CCCCC4)cc3C(=O)N([C@H](C)CO)C[C@@H]2C)cc1`, the cytotoxicity call in assay [1] and in assay [2] was “inactive” throughout. For the same compound, in assay [3], the growth inhibition call was “inactive”.
With `C[C@@H]1CN([C@@H](C)CO)C(=O)c2cc(NC(=O)CCC(F)(F)F)ccc2O[C@@H](C)CCCCO[C@H]1CN(C)Cc1ccc(C(=O)O)cc1`, the cytotoxicity call in assay [1] and in assay [2] was “inactive” throughout. In addition, in assay [3], the growth inhibition call was “inactive”.
`COc1ccc(S(=O)(=O)Nc2ccc3c(c2)C(=O)N([C@H](C)CO)C[C@H](C)[C@H](CN(C)S(=O)(=O)c2c(C)noc2C)O3)cc1`: the cytotoxicity call in assay [1] and in assay [2] was “inactive” in each case. The growth inhibition call in assay [3] is “inactive”.
With `C[C@@H]1CCCCO[C@H](CN(C)S(=O)(=O)c2ccc(Cl)cc2)[C@@H](C)CN([C@@H](C)CO)C(=O)c2cc(NC(=O)Nc3cccc4ccccc34)ccc2O1`, the cytotoxicity call in assay [1] and in assay [2] was “inactive” in each case. In addition, the growth inhibition call in assay [3] is “inactive”.
